Reference: the supplement of paper PMC11417369
± gives the standard deviation of the averaged measurements. This is one part of the list.

tested on: PfAP2-I AP2 domain 3 (GST-tagged); assay: gcPBM binding intensity (ln(normalized median fluorescence intensity)); higher = stronger DNA binding
Method in brief: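 For binding intensity, the highest Masliner-normalised natural-log median intensity across replicate spots of either probe orientation was taken. Protein bound to the array was stained with Alexa488 anti-GST antibody and scanned at 488 nm. The protein, GST-tagged P. falciparum DNA-binding domains from E. coli at about 25 μg on average, had been applied for 1 h to an Agilent 4 × 180k array of primer-extended double-stranded 36-bp intergenic genomic probes and negative controls.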

Row | Sequence | gcPBM binding intensity (ln)
1 | TTAAAAAACATTTGAACATGCAATTGTATATGTAGA [TGCATGCA_site334] | 7.53 ± 0.64
2 | ATATTAAAAAGGAAATGTACGTAATGAAGATCAAGT [XGTACX_site3138] | 8.73 ± 0.51
3 | TAAATAAAAAGACACACACACATATTTATATTTATA [CACACA_site7135] | 7.67 ± 0.49
4 | GAGAAAAATATATACACACACATAAATATATACATA [CACACA_site1895] | 7.67 ± 0.39
5 | TAAATTGGTGCAAAGTGTACATATATATCTTTCCTA [XGTACX_site5458] | 10.2
6 | AAATATCAACTCAAATGTACAAATCACAAAAATGTA [XGTACX_site5344] | 7.49 ± 0.43
7 | ATATATGATGTATTTGTGCACATATATATATTATTA [GTGCAC_site9471] | 10.4 ± 0.11
8 | TATACTCATGGACACACACACATACACAGACATACA [CACACA_site5024] | 8.07 ± 0.32
9 | AAACGGGAGAAATAAAAATAAAAATAATAAAACAAA [XGTACX_negctrl_site586] | 7.58 ± 0.55
10 | TTCATATATAATTGTACACACAAAAACGACATTGTG [CACACA_site2074] | 7.99 ± 0.3
11 | TAAATATGAGGGAACACACACATGATATATAAATTC [CACACA_site2400] | 7.83 ± 0.7
12 | GGAAATAAAATTAAATGTACGAAAACTCATTAAATT [XGTACX_site4274] | 7.45 ± 0.66
13 | GTATCAAAAGAATACACACACACATACCTATAAATA [CACACA_site7737] | 7.76 ± 0.47
14 | AAAGGAAAAAAAGTAGCACACAAATATTTATAATAT [CACACA_site8772] | 7.88 ± 0.69
15 | TGATATCTTAAGAAATGTACAAAGATATAACCATTT [XGTACX_site1913] | 7.54 ± 0.71
16 | ATTTTAATAAAATATGTACACACATACACCCATATA [CACACA_site8326] | 8.15 ± 0.34
17 | CATACATAAATATAAACATGCATATATTTTTTTTAT [TGCATGCA_site616] | 7.79 ± 0.73
18 | TAAATAAAAAAAAATACACACATCTATATAAAATAT [CACACA_site3774] | 7.46 ± 0.7
19 | GATATTTTTATTTGTTGTACTTAAGATAATAAATGA [XGTACX_site2891] | 7.98 ± 0.31
20 | AAAAAAAAAAAAATACGTACACAAAAAATTGCAAAG [XGTACX_site5663] | 8.32 ± 0.2
21 | AATATATTAAAAAAGCGTACAAGAATTGGAAAATGG [XGTACX_site6576] | 8.21 ± 0.58
22 | TGTATAACCTGTGTTACACACATTAAAATTTATATA [CACACA_site4449] | 7.67 ± 0.46
23 | ATAAATGTGTTTATTTAACACACAAAAGAAAAAATA [CACACA_site8589] | 7.75 ± 0.73

Row | Sequence | gcPBM binding intensity (ln)
24 | TTTTTAGTAACATATAGTACATATATATATATATGT [XGTACX_site4780] | 8.07 ± 0.42
25 | TTAATACAAATAAAAAGTACAAGTATCGAACTACTA [XGTACX_site6308] | 7.48 ± 0.4
26 | ATAATATGAAACTCGTACGAGGTTGTCCCAAATATA [CACACA_negctrl_site1350] | 7.8 ± 0.64
27 | TTATTTTTTCTTCAAATGTGAATTATTCATTTATTT [TGCATGCA_negctrl_site545] | 7.59 ± 0.49
28 | ATATATTATCAACTTACACACAGAAAAATATAATAA [CACACA_site293] | 7.72 ± 0.45
29 | GATATGTAAATAATATGTACATATTTATATTGTATT [XGTACX_site4052] | 7.7 ± 0.35
30 | TTTAAAGGTGATAAAACACACGATTTAGAAATGTAT [CACACA_site3161] | 8.04 ± 0.52
31 | AAAAAGAATGTGAACACACACATTGAATATAATTTA [CACACA_site1262] | 7.51 ± 0.42
32 | AAAAAAAAAACACACACATGCACATCATATTATATA [TGCATGCA_site133] | 8.05 ± 0.15
33 | TCCAATTCTTTATTTTGTACACATTATGTGCATATG [XGTACX_site6290] | 8.73 ± 0.057
34 | GTTGTTATATAAAGGAGTACATAATAACACAAATAT [XGTACX_site615] | 8.38 ± 0.48
35 | TTTTCTTGTAGTATAACAAAATATAGTAATATATAT [GTGCAC_negctrl_site609] | 7.86 ± 0.45
36 | AAAAAAAAAAAAAAAACACACATTTATAGTATATAT [CACACA_site1194] | 8.53 ± 0.28
37 | GATTTATTTCATATCACACATTTTGGCTATTTTGTG [CACACA_site5793] | 7.65 ± 0.67
38 | CCATTTGGTATTATATGTACATATAATTTTTTTTTT [XGTACX_site157] | 7.89 ± 0.49
39 | AATCCTTCATATGTAGTGCATATTAACAAAATAAAA [GTGCAC_site9500] | 9.9 ± 0.27
40 | ATGAAATATTTATTTGTGCACTTAATTTGTTGGAAA | 11.2 ± 0.21
41 | GTATATATGTATATGTGTACATATATTTTATAATAT [XGTACX_site5703] | 7.79 ± 0.33
42 | AAAAACGAAAAAAATACACACCTGAAAAGATATGTA [CACACA_site4644] | 7.21 ± 0.58
43 | GGAATAACCAGACACACACACACATATATATATATA [CACACA_site3541] | 9.37 ± 0.27
44 | TATATATAATATTATACACACATATCTGCATAATAT [CACACA_site4202] | 8.13 ± 0.49
45 | AGATCATAATATTATACACACATTATATATATGTAA [CACACA_site8419] | 7.89 ± 0.42
